# Data reported in the supplement of paper PMC8728848.
# The list shows a part of the results.
# Tests used:
# Test in all cases: glycan array binding signal (z-score within array); higher = stronger binding
# Conditions in all cases: glycan notation: IUPAC condensed, linker removed
# [1] = target: Neu5Ac(a2-3)Gal(b1-3)GalNAc
# Procedure, shortened: (§1)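 Glycan array binding is given as a within-array Z-score, which can be read as non-binding when negative. The arrays, 3228 of them, came from the Consortium for Functional Glycomics database and were retained only where the protein sequence was available. Z-scores were averaged across arrays of the same protein sequence at different concentrations or buffers and across linkers.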
# [2] = target: Neu5Ac(a2-3)Gal(b1-3)GalNAc(b1-3)Gal(a1-4)Gal(b1-4)Glc
# Procedure, shortened: as §1
# [3] = target: Neu5Ac(a2-3)Gal(b1-3)GalNAc(b1-4)Gal(b1-4)Glc
# Procedure, shortened: as §1
# [4] = target: Neu5Ac(a2-3)Gal(b1-3)GalNAc(b1-4)[Neu5Ac(a2-3)]Gal(b1-4)Glc
# Procedure, shortened: as §1
# [5] = target: Neu5Ac(a2-3)Gal(b1-3)GalNAc(b1-4)[Neu5Ac(a2-8)Neu5Ac(a2-3)]Gal(b1-4)Glc
# Procedure, shortened: as §1
# [6] = target: Neu5Ac(a2-3)Gal(b1-3)GalNAc6S
# Procedure, shortened: as §1
# [7] = target: Neu5Ac(a2-3)Gal(b1-3)GlcNAc
# Procedure, shortened: as §1
# [8] = target: Neu5Ac(a2-3)Gal(b1-3)GlcNAc(b1-2)Man
# Procedure, shortened: as §1
# [9] = target: Neu5Ac(a2-3)Gal(b1-3)GlcNAc(b1-2)Man(a1-3)[GlcNAc(b1-4)][Neu5Ac(a2-3)Gal(b1-3)GlcNAc(b1-2)Man(a1-6)]Man(b1-4)GlcNAc(b1-4)GlcNAc
# Procedure, shortened: as §1
# [10] = target: Neu5Ac(a2-3)Gal(b1-3)GlcNAc(b1-2)Man(a1-3)[Neu5Ac(a2-3)Gal(b1-3)GlcNAc(b1-2)Man(a1-6)]Man(b1-4)GlcNAc(b1-4)GlcNAc
# Procedure, shortened: as §1
# [11] = target: Neu5Ac(a2-3)Gal(b1-3)GlcNAc(b1-2)[Neu5Ac(a2-3)Gal(b1-3)GlcNAc(b1-4)]Man(a1-6)[Neu5Ac(a2-3)Gal(b1-3)GlcNAc(b1-2)Man(a1-3)]Man(b1-4)GlcNAc(b1-4)GlcNAc
# Procedure, shortened: as §1
# [12] = target: Neu5Ac(a2-3)Gal(b1-3)GlcNAc(b1-3)Gal(b1-3)GlcNAc
# Procedure, shortened: as §1
# [13] = target: Neu5Ac(a2-3)Gal(b1-3)GlcNAc(b1-3)Gal(b1-4)GlcNAc
# Procedure, shortened: as §1
# [14] = target: Neu5Ac(a2-3)Gal(b1-3)GlcNAc(b1-3)GalNAc
# Procedure, shortened: as §1
# [15] = target: Neu5Ac(a2-3)Gal(b1-3)GlcNAc(b1-6)GalNAc
# Procedure, shortened: as §1
# [16] = target: Neu5Ac(a2-3)Gal(b1-3)GlcNAc6S
# Procedure, shortened: as §1
# [17] = target: Neu5Ac(a2-3)Gal(b1-3)[Fuc(a1-4)]GlcNAc
# Procedure, shortened: as §1
# [18] = target: Neu5Ac(a2-3)Gal(b1-3)[Fuc(a1-4)]GlcNAc(b1-3)Gal(b1-3)[Fuc(a1-4)]GlcNAc
# Procedure, shortened: as §1
# [19] = target: Neu5Ac(a2-3)Gal(b1-3)[Fuc(a1-4)]GlcNAc(b1-3)Gal(b1-4)[Fuc(a1-3)]GlcNAc
# Procedure, shortened: as §1
# [20] = target: Neu5Ac(a2-3)Gal(b1-3)[GlcNAc(b1-6)]GalNAc
# Procedure, shortened: as §1
# [21] = target: Neu5Ac(a2-3)Gal(b1-3)[Neu5Ac(a2-6)]GalNAc
# Procedure, shortened: as §1
# [22] = target: Neu5Ac(a2-3)Gal(b1-3)[Neu5Ac(a2-6)]GlcNAc(b1-3)[Fuc(a1-3)[Gal(b1-4)]GlcNAc(b1-6)]Gal(b1-4)Glc
# Procedure, shortened: as §1
# [23] = target: Neu5Ac(a2-3)Gal(b1-3)]Neu5Ac(a2-3)Gal(b1-4)]GlcNAc
# Procedure, shortened: as §1
# [24] = target: Neu5Ac(a2-3)Gal(b1-4)Glc
# Procedure, shortened: as §1
# [25] = target: Neu5Ac(a2-3)Gal(b1-4)GlcNAc
# Procedure, shortened: as §1
# [26] = target: Neu5Ac(a2-3)Gal(b1-4)GlcNAc(b1-2)Man
# Procedure, shortened: as §1
# [27] = target: Neu5Ac(a2-3)Gal(b1-4)GlcNAc(b1-2)Man(a1-3)[GlcNAc(b1-4)][Neu5Ac(a2-3)Gal(b1-4)GlcNAc(b1-2)Man(a1-6)]Man(b1-4)GlcNAc(b1-4)GlcNAc
# Procedure, shortened: as §1
# [28] = target: Neu5Ac(a2-3)Gal(b1-4)GlcNAc(b1-2)Man(a1-3)[Neu5Ac(a2-3)Gal(b1-4)GlcNAc(b1-2)Man(a1-6)]Man(b1-4)GlcNAc(b1-4)GlcNAc
# Procedure, shortened: as §1
# [29] = target: Neu5Ac(a2-3)Gal(b1-4)GlcNAc(b1-2)Man(a1-3)[Neu5Ac(a2-3)Gal(b1-4)GlcNAc(b1-2)Man(a1-6)]Man(b1-4)GlcNAc(b1-4)[Fuc(a1-6)]GlcNAc
# Procedure, shortened: as §1
# [30] = target: Neu5Ac(a2-3)Gal(b1-4)GlcNAc(b1-2)Man(a1-3)[Neu5Ac(a2-6)Gal(b1-4)GlcNAc(b1-2)Man(a1-6)]Man(b1-4)GlcNAc(b1-4)GlcNAc
# Procedure, shortened: as §1
# [31] = target: Neu5Ac(a2-3)Gal(b1-4)GlcNAc(b1-2)[Neu5Ac(a2-3)Gal(b1-4)GlcNAc(b1-4)]Man(a1-3)[GlcNAc(b1-4)][Neu5Ac(a2-3)Gal(b1-4)GlcNAc(b1-2)[Neu5Ac(a2-3)Gal(b1-4)GlcNAc(b1-6)]Man(a1-6)]Man(b1-4)GlcNAc(b1-4)GlcNAc
# Procedure, shortened: as §1
# [32] = target: Neu5Ac(a2-3)Gal(b1-4)GlcNAc(b1-2)[Neu5Ac(a2-3)Gal(b1-4)GlcNAc(b1-4)]Man(a1-3)[GlcNAc(b1-4)][Neu5Ac(a2-3)Gal(b1-4)GlcNAc(b1-4)Man(a1-6)]Man(b1-4)GlcNAc(b1-4)GlcNAc
# Procedure, shortened: as §1
# [33] = target: Neu5Ac(a2-3)Gal(b1-4)GlcNAc(b1-2)[Neu5Ac(a2-3)Gal(b1-4)GlcNAc(b1-6)]Man(a1-6)[Neu5Ac(a2-3)Gal(b1-4)GlcNAc(b1-2)Man(a1-3)][GlcNAc(b1-4)]Man(b1-4)GlcNAc(b1-4)GlcNAc
# Procedure, shortened: as §1
# [34] = target: Neu5Ac(a2-3)Gal(b1-4)GlcNAc(b1-3)Gal
# Procedure, shortened: as §1
# [35] = target: Neu5Ac(a2-3)Gal(b1-4)GlcNAc(b1-3)Gal(b1-3)GlcNAc
# Procedure, shortened: as §1
# [36] = target: Neu5Ac(a2-3)Gal(b1-4)GlcNAc(b1-3)Gal(b1-4)GlcNAc
# Procedure, shortened: as §1
# [37] = target: Neu5Ac(a2-3)Gal(b1-4)GlcNAc(b1-3)Gal(b1-4)GlcNAc(b1-2)Man(a1-3)[Neu5Ac(a2-3)Gal(b1-4)GlcNAc(b1-3)Gal(b1-4)GlcNAc(b1-2)Man(a1-6)]Man(b1-4)GlcNAc(b1-4)GlcNAc
# Procedure, shortened: as §1
# [38] = target: Neu5Ac(a2-3)Gal(b1-4)GlcNAc(b1-3)Gal(b1-4)GlcNAc(b1-3)Gal(b1-4)GlcNAc
# Procedure, shortened: as §1
# [39] = target: Neu5Ac(a2-3)Gal(b1-4)GlcNAc(b1-3)Gal(b1-4)GlcNAc(b1-3)Gal(b1-4)GlcNAc(b1-2)Man(a1-3)[Neu5Ac(a2-3)Gal(b1-4)GlcNAc(b1-3)Gal(b1-4)GlcNAc(b1-3)Gal(b1-4)GlcNAc(b1-2)Man(a1-6)]GalNAc
# Procedure, shortened: as §1
# [40] = target: Neu5Ac(a2-3)Gal(b1-4)GlcNAc(b1-3)Gal(b1-4)GlcNAc(b1-3)GalNAc
# Procedure, shortened: as §1
# [41] = target: Neu5Ac(a2-3)Gal(b1-4)GlcNAc(b1-3)Gal(b1-4)GlcNAc(b1-3)[Neu5Ac(a2-3)Gal(b1-4)GlcNAc(b1-3)Gal(b1-4)GlcNAc(b1-6)]GalNAc
# Procedure, shortened: as §1
# [42] = target: Neu5Ac(a2-3)Gal(b1-4)GlcNAc(b1-3)Gal(b1-4)GlcNAc(b1-6)[Gal(b1-3)]GalNAc
# Procedure, shortened: as §1
# [43] = target: Neu5Ac(a2-3)Gal(b1-4)GlcNAc(b1-3)Gal(b1-4)[Fuc(a1-3)]GlcNAc
# Procedure, shortened: as §1
# [44] = target: Neu5Ac(a2-3)Gal(b1-4)GlcNAc(b1-3)GalNAc
# Procedure, shortened: as §1
# [45] = target: Neu5Ac(a2-3)Gal(b1-4)GlcNAc(b1-3)[Neu5Ac(a2-3)Gal(b1-4)GlcNAc(b1-6)]GalNAc
# Procedure, shortened: as §1
binder,measurement,setting,value
Pwp5 ND (Candida glabrata) (protein) MGSSHHHHHHSSGLVPRGSHMASANPVPLTNVCYFPEEYPRQAGFRAITAGLASTILQGSVDELLNYSGLSSLTTQQTTTTTPNFQLPTLPLPTNVYGLTVVPLYLLVQLQGYFVPPVSGQYTFSLENTNDAAIIFFGNPSAFPCGDLSAWPQASADDITVTDGTFPSRTLFLKAGVAYPMRISYYNSLGSGNLAVSFTDPGGTKRTNWNGYIWRYNSCSTCTYT,glycan array binding signal (z-score),[1],-0.159
same,glycan array binding signal (z-score),[2],-0.531
same,glycan array binding signal (z-score),[3],-0.411
same,glycan array binding signal (z-score),[4],-0.39
same,glycan array binding signal (z-score),[5],-0.368
same,glycan array binding signal (z-score),[6],-0.411
same,glycan array binding signal (z-score),[7],0.287
same,glycan array binding signal (z-score),[8],0.196
same,glycan array binding signal (z-score),[9],-0.174
same,glycan array binding signal (z-score),[10],0.033
same,glycan array binding signal (z-score),[11],-0.267
same,glycan array binding signal (z-score),[12],-0.516
same,glycan array binding signal (z-score),[13],-0.486
same,glycan array binding signal (z-score),[14],0.055
same,glycan array binding signal (z-score),[15],-0.595
same,glycan array binding signal (z-score),[16],-0.568
same,glycan array binding signal (z-score),[17],-0.21
same,glycan array binding signal (z-score),[18],0.355
same,glycan array binding signal (z-score),[19],-0.551
same,glycan array binding signal (z-score),[20],-0.173
same,glycan array binding signal (z-score),[21],-0.293
same,glycan array binding signal (z-score),[22],-0.585
same,glycan array binding signal (z-score),[23],1.75
same,glycan array binding signal (z-score),[24],-0.688
same,glycan array binding signal (z-score),[25],-0.588
same,glycan array binding signal (z-score),[26],0.033
same,glycan array binding signal (z-score),[27],-0.181
same,glycan array binding signal (z-score),[28],0.15
same,glycan array binding signal (z-score),[29],-0.184
same,glycan array binding signal (z-score),[30],0.39
same,glycan array binding signal (z-score),[31],-0.564
same,glycan array binding signal (z-score),[32],-0.544
same,glycan array binding signal (z-score),[33],13
same,glycan array binding signal (z-score),[34],0.949
same,glycan array binding signal (z-score),[35],-0.332
same,glycan array binding signal (z-score),[36],0.211
same,glycan array binding signal (z-score),[37],-0.247
same,glycan array binding signal (z-score),[38],-0.612
same,glycan array binding signal (z-score),[39],0.463
same,glycan array binding signal (z-score),[40],2.38
same,glycan array binding signal (z-score),[41],4.41
same,glycan array binding signal (z-score),[42],-0.721
same,glycan array binding signal (z-score),[43],0.552
same,glycan array binding signal (z-score),[44],-0.202
same,glycan array binding signal (z-score),[45],1.35
